From a collection of fitness landscapes (doi:10.1016/j.celrep.2020.107928)
In all, about 81,000 sequences were measured (“one-hybrid fitness for binding NBS DNA”: median about -0.1, highest 2% from about 0.36 on). The list shows a part of the results.

B1: Caulobacter ParB omega fusion; a variant is named by its letters at X, in order, B8GW30 (parent)
chain: MESVVVGEPGMSEGRRGLGRGLSALLGEVDAAPAQAPGEQLGGSREAPIEILQRNPDQPRRTFREEDLEDLSNSIREKGVLQPILVRPSPDTAGEYQIVAGERAWRAAQRAGLKTVPIMVRELDDLAVLEIGIIENVQRADLNVLEEALSYKVLMEKFERTQENIAQTIGKSXSHVANXMRLLXLPDEVQSYLVSGELTAXHARAIAAAADPVALAKQIIEGGLSVRETEALARKAPNLSAGKSKGGRPPRVKDTDTQALESDLSSVLGLDVSIDHRGSTGTLTITYATLEQLDDLCNRLTRGI

Variants of: B1
Test: one-hybrid fitness for binding NBS DNA (the Noc-binding site; scaled: cognate 1, non-cognate 0); higher = stronger binding
Settings: with NBS DNA site
Procedure, shortened: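 The reporter was HIS3, with the binding site 19 bp from the promoter, in E. coli USO used for bacterial one-hybrid selection of Caulobacter ParB libraries with four specificity codons randomised. Growth was on M9 lacking histidine, with 0.1 mM IPTG and 5 mM 3-AT, for 48 hours at 37°C. Illumina sequencing covered plasmids before and after selection; three replicate libraries were pooled and variants with under 10 reads dropped. A fitness score is the log change in variant-to-wild-type read ratio, rescaled to the cognate and non-cognate references.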

Variant	one-hybrid fitness for binding NBS DNA
SHQF	≤ 0.2
ANTI	≤ 0.2
QGTW	≤ 0.2
QHCE	≤ 0.2
DCGC	≤ 0.2
QNHI	≤ 0.2
TCFT	≤ 0.2
CHLV	≤ 0.2
NGQY	≤ 0.2
PTIN	≤ 0.2
LMLE	≤ 0.2
VSGC	≤ 0.2
PWED	≤ 0.2
VVRC	≤ 0.2
RDWC	≤ 0.2
NLLR	≤ 0.2
QMAY	≤ 0.2
GGNQ	≤ 0.2
VAAA	≤ 0.2
DNER	≤ 0.2
PDAT	≤ 0.2
AYSL	≤ 0.2
PMYY	≤ 0.2
GQHS	≤ 0.2
LLNR	≤ 0.2

Variant	one-hybrid fitness for binding NBS DNA
PDSC	≤ 0.2
ASRS	≤ 0.2
ENHE	≤ 0.2
SKDR	≤ 0.2
YTTA	≤ 0.2
IAMA	≤ 0.2
CDSG	≤ 0.2
GCEG	≤ 0.2
VCNT	≤ 0.2
SPQL	≤ 0.2
FKND	≤ 0.2
PMPT	≤ 0.2
QTGA	0.466
RAHR	0.487
RQGP	≤ 0.2
HYVM	≤ 0.2
THWY	≤ 0.2
QGGV	≤ 0.2
RLED	≤ 0.2
ENIC	≤ 0.2
RNRL	≤ 0.2
DTHR	≤ 0.2
GFIG	≤ 0.2
NSKC	≤ 0.2
HCTC	≤ 0.2

Variant	one-hybrid fitness for binding NBS DNA
SVPQ	≤ 0.2
RVMA	≤ 0.2
RGQH	≤ 0.2
LIAV	≤ 0.2
LYMY	≤ 0.2
LNLH	≤ 0.2
VWST	≤ 0.2
SVWG	≤ 0.2
AFVD	≤ 0.2
HAFE	≤ 0.2
SGLI	≤ 0.2
QHDD	≤ 0.2
SLIF	≤ 0.2
THKQ	≤ 0.2
PWPI	≤ 0.2
PQMT	≤ 0.2
EEHL	≤ 0.2
SFCC	≤ 0.2
HNIT	≤ 0.2
WKRK	≤ 0.2
GAFC	≤ 0.2
GQGC	≤ 0.2
IKNY	≤ 0.2
PKPL	≤ 0.2
LHHL	≤ 0.2

Variant	one-hybrid fitness for binding NBS DNA
IGKS	≤ 0.2
SNLL	≤ 0.2
MAPS	≤ 0.2
VPHR	≤ 0.2
RNYL	≤ 0.2
DTRF	≤ 0.2
CYHF	≤ 0.2
EGML	≤ 0.2
EPTY	≤ 0.2
GNRL	≤ 0.2
WIGR	≤ 0.2
SWIG	≤ 0.2
ATVV	≤ 0.2
YWWL	≤ 0.2
HCQF	≤ 0.2
ICSA	≤ 0.2
PINR	≤ 0.2
ERSD	≤ 0.2
GLAA	≤ 0.2
DLHC	≤ 0.2
GSII	≤ 0.2
YWFR	≤ 0.2
PSTE	≤ 0.2
GLVE	≤ 0.2
NVKR	≤ 0.2

Variant	one-hybrid fitness for binding NBS DNA
NDRN	≤ 0.2
YMQK	≤ 0.2
KHNC	≤ 0.2
RIHR	0.477
CMNY	≤ 0.2
RHVT	≤ 0.2
GGES	≤ 0.2
KLVF	≤ 0.2
EMVM	≤ 0.2
QCHW	≤ 0.2
YMPC	≤ 0.2
DIVR	≤ 0.2
TKCR	≤ 0.2
EGVD	≤ 0.2
RYEC	≤ 0.2
EDYT	≤ 0.2
NYHP	≤ 0.2
VDLR	≤ 0.2
CHPA	≤ 0.2
IREP	≤ 0.2
RFKS	0.444
HFTW	≤ 0.2
DHYY	≤ 0.2
PVNY	≤ 0.2
GGRE	≤ 0.2

Variant	one-hybrid fitness for binding NBS DNA
SDHV	≤ 0.2
WCAK	≤ 0.2
TDPS	≤ 0.2
WVFT	≤ 0.2
GVWG	≤ 0.2
SFKT	≤ 0.2
YTNM	≤ 0.2
FTQR	≤ 0.2
QYCC	≤ 0.2
YKTN	≤ 0.2
RSWF	≤ 0.2
RHDQ	≤ 0.2
QSWW	≤ 0.2
RKWD	≤ 0.2
GLSP	≤ 0.2
VLYC	≤ 0.2
CNFR	≤ 0.2
RKVQ	≤ 0.2
LSTP	≤ 0.2
RGNP	≤ 0.2
NQTT	≤ 0.2
DYWL	≤ 0.2
IYKS	≤ 0.2
QCRY	0.637
CSTG	≤ 0.2

Variant	one-hybrid fitness for binding NBS DNA
NSIV	≤ 0.2
TCQD	≤ 0.2
AQHT	≤ 0.2
VRQR	0.265
QLPY	≤ 0.2
SYAG	≤ 0.2
VSLV	≤ 0.2
RDNA	≤ 0.2
VQPL	≤ 0.2
TGLA	≤ 0.2
HHGC	≤ 0.2
KYTG	≤ 0.2
FKLS	≤ 0.2
PQQV	≤ 0.2
YIGR	≤ 0.2
DLRT	≤ 0.2
RVHV	≤ 0.2
WFVF	≤ 0.2
VLIT	≤ 0.2
TGKT	≤ 0.2
VLSP	≤ 0.2
DVFT	≤ 0.2
LFPT	≤ 0.2
EQGR	≤ 0.2
TQEI	≤ 0.2

Variant	one-hybrid fitness for binding NBS DNA
VEDF	≤ 0.2
HSYC	≤ 0.2
RRAY	0.405
RLLA	≤ 0.2
TNQW	≤ 0.2
LTAT	≤ 0.2
ITVF	≤ 0.2
TYNW	≤ 0.2
YVAV	≤ 0.2
PEIC	≤ 0.2
LWIS	≤ 0.2
HTLG	≤ 0.2
GAQS	≤ 0.2
QHPY	≤ 0.2
RPYN	≤ 0.2
YMYF	≤ 0.2
TDES	≤ 0.2
VTPW	≤ 0.2
MHGG	≤ 0.2
PPKL	≤ 0.2
